# Certain results were filed several times, with different values. They are shown here; other results are not. There may be further records. The records of an entry repeat one measurement across runs, samples, wells, individuals or studies. Inconclusive results are not listed. The calls were made as follows, unless noted: active = hit-call score of the fitted dose curve at least 0.9, where 1 is the maximum; inactive = score below 0.9. Some structures have more than one record in an assay (separate samples or runs), and their calls can disagree.
# Experiments:
# [1] = APR_HepG2_CellLoss_72hr: Apredica 72-hour HepG2 Assay for Cell Loss (AID 2282915); conditions: high-content imaging
# Summary of the method: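 HepG2 cells were exposed for 72 hr to compounds at 0.39–200 uM (ten concentrations, duplicate) in 0.5% v/v final DMSO. Nuclei were stained with Hoechst 33342 after 3.7% formaldehyde fixation, imaged at 20x, and counted; fits bidirectional versus DMSO.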
# [2] = ATG_BRE_CIS: Attagene CIS-FACTORIAL HepG2 Assay for human Bone Morphogenetic Protein (BMP) Response Element (BRE) (AID 2282933); conditions: HepG2 BMP response element reporter, Attagene transcription factor profiling; actives raise or lower the signal
# Summary of the method: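 Read-out: reporter mRNA induction quantified by RT-PCR and capillary electrophoresis after 24 h chemical exposure of transfected HepG2 cells. Endogenous factor activity on the BMP response element; gain or loss fitted against DMSO baseline.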
# [3] = target: Retinoic acid receptor alpha (Homo sapiens) (UniProt P10276); assay: ATG_DR5_RAR_CIS: Attagene CIS-FACTORIAL HepG2 Assay for human Retinoic Acid Receptor Alpha (RARE), DR5 submotif (AID 2282934); conditions: HepG2 Attagene cis-factorial RARE DR5 reporter, mRNA; actives raise or lower the signal;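 also: reporter responds to endogenous RAR alpha beta and gamma in HepG2 not RARA alone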
# [4] = ATG_PBREM_CIS: Attagene CIS-FACTORIAL HepG2 Assay for human Phenobarbital-responsive Enhancer Module (PBREM) (AID 2282955); conditions: HepG2 PBREM cis-reporter, Attagene multiplexed transcription; actives raise or lower the signal
# Summary of the method: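 Multiplexed cis-reporter readout in human hepatoma HepG2 cells; PBREM-regulated transcript quantified after 24 h exposure by fluorescent RT-PCR fragment analysis. Signal changes up or down fitted relative to DMSO.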
# [5] = ATG_VDRE_CIS: Attagene CIS-FACTORIAL HepG2 Assay for human Vitamin D Receptor Element (VDRE) (AID 2282968); conditions: HepG2 VDRE cis-reporter transcription, actives raise or lower the signal
# Summary of the method: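 Steps: transfect HepG2 with multiple reporter transcription units; dose chemicals 24 h; isolate RNA; RT-PCR; label with 6-FAM primer extension; HpaI digest; capillary electrophoresis. Curves fitted both directions against DMSO.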
# [6] = ATG_NRF2_ARE_CIS: Attagene CIS-FACTORIAL HepG2 Assay for human Nuclear Factor Erythroid 2 Related Factor 2 (NFR2) response to Antioxidant Response Elements (ARE) (AID 2282992); conditions: HepG2 Attagene ARE/NRF2 reporter, transcription factor activity; actives raise or lower the signal;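 also: reporter mRNA level measured by RT-PCR and capillary electrophoresis fluorescence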
# Summary of the method: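 Endogenous transcription factor activity in human liver HepG2 cells is tracked via a cis-element-driven reporter within a multiplexed set. mRNA induction is read by RT-PCR and capillary electrophoresis after 24 h, with DMSO as baseline.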
# [7] = read-out: E-selectin (Homo sapiens) (UniProt P16581); assay: BSK_3C_Eselectin: BioMAP Diversity Plus: 3C Assay for Eselectin Biomarker Activity (AID 2283015); conditions: actives raise or lower the signal; primary human endothelial cells (HUVEC)
# Summary of the method: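 ELISA read-out of E-selectin on endothelial monolayers after 24 h chemical treatment. Human umbilical vein primary cells served as the system, with DMSO defining baseline activity for bidirectional fitting.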
# [8] = read-out: Interleukin-8 (IL8), CXCL8 (gene 3576); assay: BSK_3C_IL8: BioMAP Diversity Plus: 3C Assay for Interleukin-8 (IL8) Biomarker Activity (AID 2283020); conditions: actives raise or lower the signal; primary human endothelial cells (HUVEC)
# Summary of the method: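 IL-8 was measured by ELISA in HUVEC cultures 24 h after chemical dosing, with gain or loss of signal fitted relative to DMSO. Parallel SRB total-protein staining tracked overt cytotoxicity.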
# [9] = read-out: Vascular cell adhesion molecule 1 (VCAM1), VCAM1 (gene 7412); assay: BSK_4H_VCAM1: BioMAP Diversity Plus: 4H Assay for Vascular cell adhesion molecule 1 (VCAM1) Biomarker Activity (AID 2283033); conditions: actives raise or lower the signal; primary human endothelial cells (HUVEC)
# Summary of the method: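 VCAM-1 ELISA read 24 h after chemical dosing of HUVEC in the BioMAP 4H system, with gain or loss of signal fitted relative to DMSO. Parallel SRB staining (560 nm) checked overt cytotoxicity.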
# [10] = read-out: Interleukin-8 (IL8), CXCL8 (gene 3576); assay: BSK_LPS_IL8: BioMAP Diversity Plus: LPS Assay for Interleukin-8 (IL8) Biomarker Activity (AID 2283078); conditions: actives raise or lower the signal; primary human HUVEC with PBMC
# Summary of the method: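 Readout is IL-8 by ELISA, taken 24 h after compounds were added to LPS-stimulated endothelial/PBMC co-cultures. Both increases and decreases relative to DMSO control were scored through bidirectional fitting.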
# [11] = BSK_LPS_SRB: Viability Assessment in the BioMAP Diversity Plus: LPS Assay (AID 2283079); conditions: primary human HUVEC with PBMC;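 also: total protein by sulforhodamine B absorbance as a cytotoxicity measure; measured one day after compound addition; fitted in both directions against DMSO so loss or gain of signal counts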
# Summary of the method: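 Readout is SRB absorbance at 560 nm (0.1% stain, TCA-fixed parallel cultures) as a total-protein cytotoxicity measure. Cells: primary human umbilical vein endothelium plus peripheral blood mononuclear cells, 24 h after chemical exposure; DMSO served as baseline.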
# [12] = target: Cytochrome P450 2C19 (Homo sapiens) (UniProt P33261); assay: NVS_ADME_hCYP2C19: NovaScreen (NVS) CYP450-related Enzyme Activity (ADME) Assay for human CYP2C19 (AID 2283113; active = hit-call score of the fitted dose curve at least 0.9, where 1 is the maximum;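 also: potency for inhibition seen as loss of fluorescent signal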)
# Summary of the method: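 Fluorescence intensity was measured 1 hour after chemicals were added to insect-cell-derived recombinant CYP2C19 with fluorogenic substrate. Decreased signal versus acetonitrile control was taken as reduced enzyme activity; initial testing used 10 uM in duplicate.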
# [13] = target: human Peripheral-type Benzodiazepine Receptor (PBR), TSPO (gene 706) (UniProt P30536); assay: NVS_MP_hPBR: NovaScreen (NVS) Membrane Protein Assay for human Peripheral-type Benzodiazepine Receptor (PBR) (AID 2283331; active = hit-call score of the fitted dose curve at least 0.9, where 1 is the maximum;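 also: hits reduce radioligand binding relative to DMSO baseline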)
# Summary of the method: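 Using human colon-derived membranes, this one-endpoint binding test reads radioligand loss by scintillation after 1 h. Screening started at 25 uM in duplicate, with positive and negative controls on every plate, and actives moved to dose series.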
# [14] = tested on: Sodium/Iodide Symporter (NIS), SLC5A5 (gene 6528); assay: CPHEA_Stoker_NIS_Inhibition_RAIU: CPHEA's Radioactive Iodide Uptake (RAIU) Assay for Sodium/Iodide Symporter (NIS) Inhibition, Stoker and Laws Labs (AID 2283841; active = hit-call score of the fitted dose curve at least 0.9, where 1 is the maximum)
# Summary of the method: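 hNIS-HEK293T-EPA cells incubated 2 h at room temperature with compound (0.001–100 uM, 0.5% DMSO) and 329 pM final 125I in HBSS/10 mM HEPES, pH 7.4. Intracellular 125I counted; normalised to DMSO maximal uptake, triplicate, three biological replicates.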
# [15] = CPHEA_Stoker_NIS_Cytotoxicity: Cytotoxicity Assessment for CPHEA's Radioactive Iodide Uptake (RAIU) Assay for Sodium/Iodide Symporter (NIS) Inhibition, Stoker and Laws Labs (AID 2283897; active = hit-call score of the fitted dose curve at least 0.9, where 1 is the maximum;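 also: active means loss of ATP signal versus DMSO meaning cytotoxicity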)
# Summary of the method: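 hNIS-HEK293T-EPA cells, human NIS expressed in HEK293T, treated 2 h with chemicals (0.001–100 uM, 0.5% final DMSO). ATP content read by CellTiter-Glo luminescence; loss of signal analysed relative to DMSO.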
# [16] = target: Nuclear receptor subfamily 1 group I member 2 (Homo sapiens) (UniProt O75469); assay: ATG_PXR_TRANS: Attagene TRANS-FACTORIAL HepG2 Assay for human Pregnane X Receptor (PXR) (AID 2283008; active = hit-call score of the fitted dose curve at least 0.9, where 1 is the maximum)
# Summary of the method: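 HepG2 transfected (FuGene 6) with GAL4-UAS reporter units + PXR-Gal4 chimera; dosed 24 h. Total RNA → oligo(dT) RT → PCR → 6-FAM primer extension → HpaI cut → CE. Gain-of-signal vs DMSO.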
# [17] = target: human CYP1A2, CYP1A2 (gene 1544) (UniProt P05177); assay: NVS_ADME_hCYP1A2: NovaScreen (NVS) CYP450-related Enzyme Activity (ADME) Assay for human CYP1A2 (AID 2283102; active = hit-call score of the fitted dose curve at least 0.9, where 1 is the maximum;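 also: potency for inhibition since loss of fluorescence marks reduced CYP1A2 activity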)
# Summary of the method: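 rec. hCYP1A2 (insect cells), cell-free; fluorogenic substrate; 0.5 h; FI read. Baseline = acetonitrile; signal loss = inhibition. 10 uM duplicate primary → conc. series for actives.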
# [18] = target: rat CYP2A1, Cyp2a1 (gene 24894) (UniProt P11711); assay: NVS_ADME_rCYP2A1: NovaScreen (NVS) CYP450-related Enzyme Activity (ADME) Assay for rat CYP2A1 (AID 2283114)
# Summary of the method: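 Cell-free fluorescence enzyme-activity read on recombinant rat CYP2A1, taken 0.75 h post-dosing. Compounds were screened in duplicate at 10 uM, then hits tested in concentration series (max 20 uM); inhibition scored relative to acetonitrile baseline.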
# Sequence of UniProt P11711 (P11711 whole entry, looked up): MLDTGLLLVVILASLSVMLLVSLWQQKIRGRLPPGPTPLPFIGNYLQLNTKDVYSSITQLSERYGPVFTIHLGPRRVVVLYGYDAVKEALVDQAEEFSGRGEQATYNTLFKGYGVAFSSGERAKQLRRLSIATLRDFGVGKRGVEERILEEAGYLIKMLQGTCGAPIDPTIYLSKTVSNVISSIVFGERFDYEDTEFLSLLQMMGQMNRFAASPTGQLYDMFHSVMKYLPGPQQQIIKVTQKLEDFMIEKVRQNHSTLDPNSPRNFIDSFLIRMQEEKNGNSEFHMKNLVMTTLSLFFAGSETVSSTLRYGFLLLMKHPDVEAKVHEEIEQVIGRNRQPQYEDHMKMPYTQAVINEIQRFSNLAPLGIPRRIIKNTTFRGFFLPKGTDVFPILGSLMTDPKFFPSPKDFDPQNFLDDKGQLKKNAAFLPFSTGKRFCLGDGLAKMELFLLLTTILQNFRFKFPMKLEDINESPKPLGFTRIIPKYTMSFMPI
# Sequence of UniProt P30536 (P30536 whole entry, looked up): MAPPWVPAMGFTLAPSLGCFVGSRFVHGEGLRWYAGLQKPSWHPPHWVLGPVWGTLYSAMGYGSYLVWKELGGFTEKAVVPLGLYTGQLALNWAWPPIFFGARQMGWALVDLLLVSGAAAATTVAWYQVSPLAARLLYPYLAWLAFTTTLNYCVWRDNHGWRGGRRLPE
# Sequence of UniProt P10276 (P10276 whole entry, looked up): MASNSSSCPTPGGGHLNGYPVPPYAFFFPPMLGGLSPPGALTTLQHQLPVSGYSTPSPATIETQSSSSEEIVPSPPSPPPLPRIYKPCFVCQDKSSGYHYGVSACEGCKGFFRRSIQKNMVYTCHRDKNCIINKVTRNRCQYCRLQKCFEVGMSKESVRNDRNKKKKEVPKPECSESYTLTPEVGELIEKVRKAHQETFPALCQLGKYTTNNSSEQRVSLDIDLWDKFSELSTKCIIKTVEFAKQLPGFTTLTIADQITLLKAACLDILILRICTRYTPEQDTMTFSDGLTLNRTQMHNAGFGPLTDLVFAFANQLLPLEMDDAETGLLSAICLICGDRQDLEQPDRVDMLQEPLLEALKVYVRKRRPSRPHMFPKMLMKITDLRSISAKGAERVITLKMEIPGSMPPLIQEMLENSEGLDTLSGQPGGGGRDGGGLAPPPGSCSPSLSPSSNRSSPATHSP
# Sequence of UniProt P05177 (P05177 whole entry, looked up): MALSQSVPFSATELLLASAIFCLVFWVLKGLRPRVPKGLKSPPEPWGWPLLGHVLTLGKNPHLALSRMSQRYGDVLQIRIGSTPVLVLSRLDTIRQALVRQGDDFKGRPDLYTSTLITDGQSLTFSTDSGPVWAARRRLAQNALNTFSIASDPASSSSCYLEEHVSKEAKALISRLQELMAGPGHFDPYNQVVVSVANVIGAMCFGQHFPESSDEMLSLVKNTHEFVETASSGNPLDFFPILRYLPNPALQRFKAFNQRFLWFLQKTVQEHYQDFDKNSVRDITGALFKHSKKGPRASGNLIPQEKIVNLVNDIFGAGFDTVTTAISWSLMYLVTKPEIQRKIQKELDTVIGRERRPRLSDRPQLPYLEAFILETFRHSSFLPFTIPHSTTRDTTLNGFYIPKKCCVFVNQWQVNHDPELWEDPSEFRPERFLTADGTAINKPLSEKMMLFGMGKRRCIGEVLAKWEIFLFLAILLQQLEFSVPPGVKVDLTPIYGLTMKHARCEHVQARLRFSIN
# Sequence of UniProt O75469 (O75469 whole entry, looked up, the tested form may be a part): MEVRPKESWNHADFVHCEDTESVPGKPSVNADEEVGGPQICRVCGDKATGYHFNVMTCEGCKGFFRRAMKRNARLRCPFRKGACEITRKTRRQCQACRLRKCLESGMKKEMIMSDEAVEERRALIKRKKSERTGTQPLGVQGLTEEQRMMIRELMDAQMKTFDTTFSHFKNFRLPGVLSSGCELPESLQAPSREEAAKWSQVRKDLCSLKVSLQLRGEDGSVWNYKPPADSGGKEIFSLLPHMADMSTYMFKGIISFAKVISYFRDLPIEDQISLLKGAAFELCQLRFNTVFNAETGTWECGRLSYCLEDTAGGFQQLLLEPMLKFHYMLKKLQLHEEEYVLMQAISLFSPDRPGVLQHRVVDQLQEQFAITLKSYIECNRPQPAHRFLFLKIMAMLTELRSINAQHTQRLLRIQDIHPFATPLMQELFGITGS
# Sequence of UniProt P33261 (P33261 whole entry, looked up): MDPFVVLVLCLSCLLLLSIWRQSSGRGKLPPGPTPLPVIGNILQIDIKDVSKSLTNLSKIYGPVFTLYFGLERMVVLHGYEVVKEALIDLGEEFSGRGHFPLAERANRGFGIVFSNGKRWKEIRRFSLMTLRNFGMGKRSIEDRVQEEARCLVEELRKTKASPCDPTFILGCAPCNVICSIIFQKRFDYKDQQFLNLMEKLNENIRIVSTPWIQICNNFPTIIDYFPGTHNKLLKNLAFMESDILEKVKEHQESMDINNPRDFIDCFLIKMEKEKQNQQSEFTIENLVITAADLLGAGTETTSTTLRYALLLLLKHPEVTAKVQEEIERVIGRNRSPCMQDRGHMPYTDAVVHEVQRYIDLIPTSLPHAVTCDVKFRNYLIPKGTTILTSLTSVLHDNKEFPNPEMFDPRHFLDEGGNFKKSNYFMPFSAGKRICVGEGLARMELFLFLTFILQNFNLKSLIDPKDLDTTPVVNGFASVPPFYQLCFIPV
# Sequence of UniProt P16581 (P16581 whole entry, looked up): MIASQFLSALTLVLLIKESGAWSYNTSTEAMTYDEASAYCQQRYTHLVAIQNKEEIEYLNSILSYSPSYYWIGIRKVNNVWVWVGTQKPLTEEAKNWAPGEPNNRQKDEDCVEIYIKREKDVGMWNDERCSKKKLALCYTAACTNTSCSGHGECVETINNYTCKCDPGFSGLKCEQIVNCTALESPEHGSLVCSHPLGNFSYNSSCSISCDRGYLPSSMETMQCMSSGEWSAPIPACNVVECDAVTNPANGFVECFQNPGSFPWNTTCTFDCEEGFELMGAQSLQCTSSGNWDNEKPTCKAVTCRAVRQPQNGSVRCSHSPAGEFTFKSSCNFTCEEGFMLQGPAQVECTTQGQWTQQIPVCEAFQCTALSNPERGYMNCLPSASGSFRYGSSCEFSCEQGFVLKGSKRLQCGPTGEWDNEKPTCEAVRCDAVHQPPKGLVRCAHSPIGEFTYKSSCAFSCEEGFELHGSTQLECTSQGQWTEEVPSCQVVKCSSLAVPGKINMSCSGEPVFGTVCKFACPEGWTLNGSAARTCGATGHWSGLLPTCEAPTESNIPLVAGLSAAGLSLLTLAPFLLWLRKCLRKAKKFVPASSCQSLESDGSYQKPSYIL
structure (smiles),measurement,setting,value
CO/C=C(/C(=O)OC)c1ccccc1Oc1cc(Oc2ccccc2C#N)ncn1,AC50,[1],"active: 14.4, 7.82, 11.1, 28 µM [separate samples]"
same,AC50,[2],"active: 79, 69.6, 33.5, 84.5, 21.2 µM [separate samples]"
same,AC50,[3],"active: 2.09, 1.88, 2.06, 17 µM [separate samples]"
same,AC50,[4],"active: 2.18, 2.53, 1.68, 20.5 µM [separate samples]"
same,AC50,[5],"active: 1.96, 2.5, 2.84, 4.26, 1.28, 15.1 µM [separate samples]"
same,AC50,[6],"active: 13, 9.94, 1.38, 2.75, 2.67 µM [separate samples]"
same,AC50,[7],"active: 5.71, 5.6, 5.72, 26.7 µM [separate samples]"
same,AC50,[8],"active: 10.1, 8.5, 7.4, 22.9 µM [separate samples]"
same,AC50,[9],"active: 13.4, 31.8, 34, 9.63 µM [separate samples]"
same,AC50,[10],"active: 27.9 µM, 6.93 µM, 8.14 µM, 540 nM [separate samples]"
same,AC50,[11],"active: 27, 11.5, 11.9, 5.98 µM [separate samples]"
same,AC50,[12],"active: 2.86, 5.48, 4.01, 1.55 µM [separate samples]"
same,AC50,[13],"active: 5.71, 6.59, 7.14, 6.13, 2.18 µM [separate samples]"
same,AC50,[14],"active: 25.2, 14.8, 24, 50, 41.4 µM [separate samples]"
same,AC50,[15],"active: 77.6 µM, 50 µM, 418 nM, 9.92 µM, 30.8 µM, 25.6 µM, 35.5 µM [separate samples]"
CCCCOC(=O)c1ccccc1C(=O)OCCCC,AC50,[5],"active: 27.7, 56.9, 83.7, 28 µM [separate samples]"
CON(C)C(=O)Nc1ccc(Cl)c(Cl)c1,AC50,[16],"active: 9.65, 25.8, 27.1, 33.6 µM [separate samples]"
same,AC50,[17],"active: 4.33, 7.9, 9.85, 2.32 µM [separate samples]"
same,AC50,[18],"active: 917 nM, 2.36 µM, 5.85 µM, 556 nM [separate samples]"

# From PubChem BioAssay (EPA / NIEHS)
